From article PMC2991254
Results are given in words; binding and its absence hold for the method and conditions named. Some binding calls cover weakened binding; strength is not graded here.

The chains behind the UniProt entries cited, without tags or fusion partners. Where a name states a change or a piece, a line headed by the entry shows the natural chain unless it says otherwise. A line that says so, or that is headed by a name, gives the form on record, which may keep a tag or linker.
UniProt Q9SZJ6: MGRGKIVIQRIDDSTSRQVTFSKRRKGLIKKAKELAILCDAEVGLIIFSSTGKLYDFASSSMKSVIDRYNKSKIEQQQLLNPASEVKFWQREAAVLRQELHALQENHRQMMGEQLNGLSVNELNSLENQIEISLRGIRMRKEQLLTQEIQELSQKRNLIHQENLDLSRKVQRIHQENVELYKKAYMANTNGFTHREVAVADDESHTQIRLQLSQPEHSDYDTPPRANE
UniProt P35631: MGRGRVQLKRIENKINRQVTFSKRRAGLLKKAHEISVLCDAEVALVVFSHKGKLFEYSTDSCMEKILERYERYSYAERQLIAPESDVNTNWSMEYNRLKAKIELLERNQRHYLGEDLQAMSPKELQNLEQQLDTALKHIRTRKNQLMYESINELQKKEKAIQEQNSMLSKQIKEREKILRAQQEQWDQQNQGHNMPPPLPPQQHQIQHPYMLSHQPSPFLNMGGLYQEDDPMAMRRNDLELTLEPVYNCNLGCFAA
UniProt Q9FPN7: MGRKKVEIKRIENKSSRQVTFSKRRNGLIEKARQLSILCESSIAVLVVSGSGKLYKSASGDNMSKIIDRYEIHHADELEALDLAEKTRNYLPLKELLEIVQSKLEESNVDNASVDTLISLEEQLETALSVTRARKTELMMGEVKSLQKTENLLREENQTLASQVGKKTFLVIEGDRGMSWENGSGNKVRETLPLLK
UniProt Q39081: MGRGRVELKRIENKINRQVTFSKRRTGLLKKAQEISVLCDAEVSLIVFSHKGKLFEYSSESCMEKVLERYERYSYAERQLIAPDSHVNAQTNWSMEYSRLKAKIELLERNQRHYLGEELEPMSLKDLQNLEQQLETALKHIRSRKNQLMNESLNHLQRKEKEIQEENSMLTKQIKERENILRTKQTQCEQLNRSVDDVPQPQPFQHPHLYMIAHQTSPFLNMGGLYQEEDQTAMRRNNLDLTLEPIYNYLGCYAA
UniProt Q38838: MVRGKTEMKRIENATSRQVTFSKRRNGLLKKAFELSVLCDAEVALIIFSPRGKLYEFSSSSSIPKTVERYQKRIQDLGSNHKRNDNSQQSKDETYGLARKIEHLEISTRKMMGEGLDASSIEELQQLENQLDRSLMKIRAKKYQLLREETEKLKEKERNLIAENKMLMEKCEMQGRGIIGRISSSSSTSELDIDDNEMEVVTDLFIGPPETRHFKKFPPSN
UniProt P29381: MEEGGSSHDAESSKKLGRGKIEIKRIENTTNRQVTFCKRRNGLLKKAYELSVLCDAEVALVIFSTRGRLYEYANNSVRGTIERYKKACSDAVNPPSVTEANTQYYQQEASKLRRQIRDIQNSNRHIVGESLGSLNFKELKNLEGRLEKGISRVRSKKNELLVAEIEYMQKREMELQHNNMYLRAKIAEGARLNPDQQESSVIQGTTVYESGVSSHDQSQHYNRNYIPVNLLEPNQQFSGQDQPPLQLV
UniProt P29385: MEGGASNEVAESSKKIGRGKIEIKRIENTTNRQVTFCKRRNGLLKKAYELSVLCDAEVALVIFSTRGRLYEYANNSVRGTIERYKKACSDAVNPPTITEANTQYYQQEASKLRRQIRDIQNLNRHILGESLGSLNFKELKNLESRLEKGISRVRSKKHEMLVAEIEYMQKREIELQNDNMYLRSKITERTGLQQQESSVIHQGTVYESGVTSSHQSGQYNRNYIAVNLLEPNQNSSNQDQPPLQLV
UniProt P29386: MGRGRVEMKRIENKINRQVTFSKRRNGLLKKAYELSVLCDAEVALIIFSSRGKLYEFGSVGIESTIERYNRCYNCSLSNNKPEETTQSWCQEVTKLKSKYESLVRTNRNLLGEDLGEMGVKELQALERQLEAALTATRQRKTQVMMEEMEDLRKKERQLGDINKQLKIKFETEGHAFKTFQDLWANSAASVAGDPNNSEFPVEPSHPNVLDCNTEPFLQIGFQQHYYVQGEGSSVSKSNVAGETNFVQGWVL
UniProt Q38840: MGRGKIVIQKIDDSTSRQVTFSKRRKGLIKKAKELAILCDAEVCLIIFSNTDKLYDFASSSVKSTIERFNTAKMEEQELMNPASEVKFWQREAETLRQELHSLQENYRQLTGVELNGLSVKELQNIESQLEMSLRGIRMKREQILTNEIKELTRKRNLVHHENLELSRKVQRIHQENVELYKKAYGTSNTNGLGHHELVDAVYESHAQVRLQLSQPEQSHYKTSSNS
UniProt O22456: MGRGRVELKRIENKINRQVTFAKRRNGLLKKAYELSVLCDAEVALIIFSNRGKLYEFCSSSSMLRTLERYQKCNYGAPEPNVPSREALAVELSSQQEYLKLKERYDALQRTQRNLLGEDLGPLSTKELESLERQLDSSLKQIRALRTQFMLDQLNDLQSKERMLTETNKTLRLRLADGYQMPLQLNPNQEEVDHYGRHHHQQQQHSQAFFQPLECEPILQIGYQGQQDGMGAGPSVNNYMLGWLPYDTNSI
SOC1 MQD62-64SIPK (O64645, form named): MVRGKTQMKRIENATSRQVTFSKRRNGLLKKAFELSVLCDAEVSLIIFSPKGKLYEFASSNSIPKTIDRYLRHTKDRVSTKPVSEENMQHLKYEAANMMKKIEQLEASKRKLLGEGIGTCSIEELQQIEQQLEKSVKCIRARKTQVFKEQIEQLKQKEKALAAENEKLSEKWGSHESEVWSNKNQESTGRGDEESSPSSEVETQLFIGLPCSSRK

Tests used:
Test in all cases: two-hybrid; matrix-based yeast two-hybrid, GAL4-AD and GAL4-BD fusions (pDEST22, pDEST32), in duplicate, at least two reporter genes; medium lacking Leu, Trp and His with 1 mM 3-amino-1,2,4-triazole, growth scored after 4 days at 20°C
[1] = molecular target: AGL21 (Arabidopsis thaliana) (UniProt Q9SZJ6)
[2] = molecular target: APETALA1 (Arabidopsis thaliana) (UniProt P35631)
[3] = molecular target: SHORT … PHASE (SVP1) (Arabidopsis thaliana) (UniProt Q9FVC1)
[4] = molecular target: T1, AGL71 (Arabidopsis thaliana) (UniProt Q9LT93)
T1 sequence: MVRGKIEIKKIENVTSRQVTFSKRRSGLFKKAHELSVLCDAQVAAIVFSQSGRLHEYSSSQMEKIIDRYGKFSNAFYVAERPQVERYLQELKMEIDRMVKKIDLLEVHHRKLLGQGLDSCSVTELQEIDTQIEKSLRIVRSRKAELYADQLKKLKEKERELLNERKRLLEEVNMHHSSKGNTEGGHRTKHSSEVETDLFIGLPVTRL

[5] = molecular target: T2, AGL13 (Arabidopsis thaliana) (UniProt Q38837)
T2 sequence: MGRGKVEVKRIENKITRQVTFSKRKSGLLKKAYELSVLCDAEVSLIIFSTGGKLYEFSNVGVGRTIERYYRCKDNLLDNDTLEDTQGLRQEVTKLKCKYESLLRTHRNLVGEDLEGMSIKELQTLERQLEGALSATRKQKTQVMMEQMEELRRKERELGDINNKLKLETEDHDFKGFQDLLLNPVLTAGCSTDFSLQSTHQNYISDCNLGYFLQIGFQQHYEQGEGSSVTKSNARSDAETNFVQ

[6] = molecular target: MADS … FLOWERING 2 (Arabidopsis thaliana) (UniProt Q9FPN7)
[7] = molecular target: CAULIFLOWER (Arabidopsis thaliana) (UniProt Q39081)
[8] = molecular target: AGAMOUS LIKE14 (Arabidopsis thaliana) (UniProt Q38838)
[9] = molecular target: …OOF1 (Arabidopsis thaliana) (UniProt P29381)
[10] = molecular target: …OOF2 (Arabidopsis thaliana) (UniProt P29385)
[11] = molecular target: T3, AGL15 (Arabidopsis thaliana) (UniProt Q38847)
T3 sequence: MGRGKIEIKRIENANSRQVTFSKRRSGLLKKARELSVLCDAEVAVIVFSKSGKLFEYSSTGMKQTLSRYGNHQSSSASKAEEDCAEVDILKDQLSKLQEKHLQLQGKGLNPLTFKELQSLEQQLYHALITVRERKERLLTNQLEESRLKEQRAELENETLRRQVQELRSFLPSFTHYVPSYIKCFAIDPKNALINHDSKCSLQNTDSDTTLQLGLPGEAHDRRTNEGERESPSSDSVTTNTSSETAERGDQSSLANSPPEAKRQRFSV

[12] = molecular target: AGL6 (Arabidopsis thaliana) (UniProt P29386)
[13] = molecular target: AGL17 (Arabidopsis thaliana) (UniProt Q38840)
[14] = molecular target: SEP3 (Arabidopsis thaliana) (UniProt O22456)

Substance | binding [1] | binding [2] | binding [3] | binding [4] | binding [5] | binding [6] | binding [7] | binding [8] | binding [9] | binding [10] | binding [11] | binding [12] | binding [13] | binding [14]
CAULIFLOWER (from UniProt Q39081 1-255) | no binding | no binding | no binding | no binding | no binding | no binding | no binding | no binding | no binding | no binding | no binding | no binding | no binding | no binding
SOC1 MQD62-64SIPK (from UniProt O64645 1-214) | binds | no binding | binds | no binding | no binding | no binding | no binding | no binding | no binding | no binding | no binding | no binding | no binding | binds
SVP1 C58S (from UniProt Q9FVC1 1-240) | binds | binds | no binding | no binding | no binding | no binding | no binding | binds | binds | binds | no binding | no binding | binds | binds
SVP1 C58S/S61R (from UniProt Q9FVC1 1-240) | binds | no binding | no binding | no binding | no binding | no binding | no binding | no binding | no binding | no binding | no binding | no binding | no binding | binds
SVP1 SS227-228MF (from UniProt Q9FVC1 1-240) | binds | binds | no binding | no binding | binds | binds | binds | binds | binds | binds | no binding | no binding | binds | binds

Other lines, results leading:

binding [1] | binding [2] | binding [3] | binding [4] | binding [5] | binding [6] | binding [7] | binding [8] | binding [9] | binding [10] | binding [11] | binding [12] | binding [13] | binding [14] | Substance
no binding | binds | binds | no binding | binds | no binding | no binding | no binding | no binding | binds | no binding | no binding | no binding | binds | CAL V66I (from UniProt Q39081 1-255)
no binding | no binding | no binding | no binding | no binding | no binding | no binding | no binding | no binding | no binding | no binding | no binding | no binding | no binding | CAL V66I/N150Y (from UniProt Q39081 1-255)
binds | no binding | no binding | no binding | no binding | no binding | no binding | no binding | no binding | no binding | no binding | no binding | no binding | no binding | SVP1 EFCSSS56-61D (from UniProt Q9FVC1 1-240)
binds | binds | no binding | no binding | no binding | no binding | no binding | no binding | no binding | no binding | no binding | no binding | no binding | binds | SVP1 S61R (from UniProt Q9FVC1 1-240)
